Results are given in words; binding and its absence hold for the method and conditions named. For part of these data: In cells and extracts the contact can be indirect. Some binding calls cover weakened binding; strength is not graded here. For part of these data: Sequences can lack the tags named with a protein.
What was measured:
[1] = biological target: RAD51 (endogenous) (human (endogenous in HEK293T and HeLa)) (UniProt Q06609); experiment: co-IP; RAD51 immunoprecipitates from cells expressing Flag-PCAF full length, HAT or ΔHAT; cells not named (Fig. 2G)
[2] = biological target: RAD51 (endogenous) (human (endogenous in HEK293T and HeLa)) (UniProt Q06609); experiment: co-IP; anti-RAD51 immunoprecipitation from HEK293T cells transfected with Flag-tagged acetyltransferases; blot for Flag (Fig. 2A)
[3] = biological target: His-RAD51 expressed in HEK293T cells (UniProt Q06609); experiment: co-IP; anti-His immunoprecipitation from HEK293T cells co-transfected with Flag-PCAF and His-RAD51 or empty vector; blot for Flag (Fig. EV2C)
[4] = biological target: RAD51 (endogenous) (human (endogenous in HEK293T and HeLa)) (UniProt Q06609); experiment: co-IP; anti-RAD51 immunoprecipitation from HeLa cells transfected with empty vector or Flag-PCAF, with or without ETO (20 uM, 2 h); blot for Flag (Fig. 2E)
[5] = biological target: His-RAD51, purified from E. coli (UniProt Q06609); experiment: pull-down; purified His-RAD51 bound to RAD51 antibody on Protein A/G magnetic beads, incubated with purified His-PCAF; western blot (Fig. 2C); both purified
[6] = biological target: RAD51 (endogenous) (human (endogenous in HEK293T and HeLa)) (UniProt Q06609); experiment: co-IP; anti-RAD51 immunoprecipitation from HEK293T cells; blot for endogenous PCAF or p300 (Figs. 2B, EV2A)
[7] = biological target: T1, Flag-RAD51 R1 (residues 1-114, N-terminal domain) (UniProt Q06609); experiment: co-IP; immunoprecipitation of Flag-RAD51 full length, R1 or R2; blot for endogenous PCAF; cells not named (Fig. 2F)
T1 sequence: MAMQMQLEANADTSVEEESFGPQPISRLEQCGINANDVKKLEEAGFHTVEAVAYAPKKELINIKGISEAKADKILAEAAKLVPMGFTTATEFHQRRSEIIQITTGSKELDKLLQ

Chains of the proteins cited; added tags and fusions are not shown.
UniProt Q92831: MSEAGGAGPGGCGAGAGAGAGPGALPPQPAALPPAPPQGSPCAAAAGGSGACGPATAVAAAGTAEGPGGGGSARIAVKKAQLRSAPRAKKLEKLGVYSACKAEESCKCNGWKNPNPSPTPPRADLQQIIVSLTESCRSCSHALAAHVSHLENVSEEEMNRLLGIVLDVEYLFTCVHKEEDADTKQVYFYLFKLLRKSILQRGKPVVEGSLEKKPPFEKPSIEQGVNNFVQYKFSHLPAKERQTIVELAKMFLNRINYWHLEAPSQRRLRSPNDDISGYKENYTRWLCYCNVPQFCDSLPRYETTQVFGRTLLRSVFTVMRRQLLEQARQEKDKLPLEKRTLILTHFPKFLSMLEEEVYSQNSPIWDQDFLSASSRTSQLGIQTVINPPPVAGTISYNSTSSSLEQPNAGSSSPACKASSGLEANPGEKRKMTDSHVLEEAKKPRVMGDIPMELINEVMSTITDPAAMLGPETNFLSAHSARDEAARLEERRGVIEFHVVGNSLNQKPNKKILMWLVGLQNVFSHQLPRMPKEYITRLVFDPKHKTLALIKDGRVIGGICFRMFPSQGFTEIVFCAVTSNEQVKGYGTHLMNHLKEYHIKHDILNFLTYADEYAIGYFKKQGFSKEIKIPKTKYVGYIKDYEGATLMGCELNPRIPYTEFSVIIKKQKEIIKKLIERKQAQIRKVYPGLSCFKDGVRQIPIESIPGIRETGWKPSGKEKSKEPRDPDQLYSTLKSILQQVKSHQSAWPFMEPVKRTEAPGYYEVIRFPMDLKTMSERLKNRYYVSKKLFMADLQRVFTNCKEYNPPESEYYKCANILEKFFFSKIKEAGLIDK
UniProt Q09472: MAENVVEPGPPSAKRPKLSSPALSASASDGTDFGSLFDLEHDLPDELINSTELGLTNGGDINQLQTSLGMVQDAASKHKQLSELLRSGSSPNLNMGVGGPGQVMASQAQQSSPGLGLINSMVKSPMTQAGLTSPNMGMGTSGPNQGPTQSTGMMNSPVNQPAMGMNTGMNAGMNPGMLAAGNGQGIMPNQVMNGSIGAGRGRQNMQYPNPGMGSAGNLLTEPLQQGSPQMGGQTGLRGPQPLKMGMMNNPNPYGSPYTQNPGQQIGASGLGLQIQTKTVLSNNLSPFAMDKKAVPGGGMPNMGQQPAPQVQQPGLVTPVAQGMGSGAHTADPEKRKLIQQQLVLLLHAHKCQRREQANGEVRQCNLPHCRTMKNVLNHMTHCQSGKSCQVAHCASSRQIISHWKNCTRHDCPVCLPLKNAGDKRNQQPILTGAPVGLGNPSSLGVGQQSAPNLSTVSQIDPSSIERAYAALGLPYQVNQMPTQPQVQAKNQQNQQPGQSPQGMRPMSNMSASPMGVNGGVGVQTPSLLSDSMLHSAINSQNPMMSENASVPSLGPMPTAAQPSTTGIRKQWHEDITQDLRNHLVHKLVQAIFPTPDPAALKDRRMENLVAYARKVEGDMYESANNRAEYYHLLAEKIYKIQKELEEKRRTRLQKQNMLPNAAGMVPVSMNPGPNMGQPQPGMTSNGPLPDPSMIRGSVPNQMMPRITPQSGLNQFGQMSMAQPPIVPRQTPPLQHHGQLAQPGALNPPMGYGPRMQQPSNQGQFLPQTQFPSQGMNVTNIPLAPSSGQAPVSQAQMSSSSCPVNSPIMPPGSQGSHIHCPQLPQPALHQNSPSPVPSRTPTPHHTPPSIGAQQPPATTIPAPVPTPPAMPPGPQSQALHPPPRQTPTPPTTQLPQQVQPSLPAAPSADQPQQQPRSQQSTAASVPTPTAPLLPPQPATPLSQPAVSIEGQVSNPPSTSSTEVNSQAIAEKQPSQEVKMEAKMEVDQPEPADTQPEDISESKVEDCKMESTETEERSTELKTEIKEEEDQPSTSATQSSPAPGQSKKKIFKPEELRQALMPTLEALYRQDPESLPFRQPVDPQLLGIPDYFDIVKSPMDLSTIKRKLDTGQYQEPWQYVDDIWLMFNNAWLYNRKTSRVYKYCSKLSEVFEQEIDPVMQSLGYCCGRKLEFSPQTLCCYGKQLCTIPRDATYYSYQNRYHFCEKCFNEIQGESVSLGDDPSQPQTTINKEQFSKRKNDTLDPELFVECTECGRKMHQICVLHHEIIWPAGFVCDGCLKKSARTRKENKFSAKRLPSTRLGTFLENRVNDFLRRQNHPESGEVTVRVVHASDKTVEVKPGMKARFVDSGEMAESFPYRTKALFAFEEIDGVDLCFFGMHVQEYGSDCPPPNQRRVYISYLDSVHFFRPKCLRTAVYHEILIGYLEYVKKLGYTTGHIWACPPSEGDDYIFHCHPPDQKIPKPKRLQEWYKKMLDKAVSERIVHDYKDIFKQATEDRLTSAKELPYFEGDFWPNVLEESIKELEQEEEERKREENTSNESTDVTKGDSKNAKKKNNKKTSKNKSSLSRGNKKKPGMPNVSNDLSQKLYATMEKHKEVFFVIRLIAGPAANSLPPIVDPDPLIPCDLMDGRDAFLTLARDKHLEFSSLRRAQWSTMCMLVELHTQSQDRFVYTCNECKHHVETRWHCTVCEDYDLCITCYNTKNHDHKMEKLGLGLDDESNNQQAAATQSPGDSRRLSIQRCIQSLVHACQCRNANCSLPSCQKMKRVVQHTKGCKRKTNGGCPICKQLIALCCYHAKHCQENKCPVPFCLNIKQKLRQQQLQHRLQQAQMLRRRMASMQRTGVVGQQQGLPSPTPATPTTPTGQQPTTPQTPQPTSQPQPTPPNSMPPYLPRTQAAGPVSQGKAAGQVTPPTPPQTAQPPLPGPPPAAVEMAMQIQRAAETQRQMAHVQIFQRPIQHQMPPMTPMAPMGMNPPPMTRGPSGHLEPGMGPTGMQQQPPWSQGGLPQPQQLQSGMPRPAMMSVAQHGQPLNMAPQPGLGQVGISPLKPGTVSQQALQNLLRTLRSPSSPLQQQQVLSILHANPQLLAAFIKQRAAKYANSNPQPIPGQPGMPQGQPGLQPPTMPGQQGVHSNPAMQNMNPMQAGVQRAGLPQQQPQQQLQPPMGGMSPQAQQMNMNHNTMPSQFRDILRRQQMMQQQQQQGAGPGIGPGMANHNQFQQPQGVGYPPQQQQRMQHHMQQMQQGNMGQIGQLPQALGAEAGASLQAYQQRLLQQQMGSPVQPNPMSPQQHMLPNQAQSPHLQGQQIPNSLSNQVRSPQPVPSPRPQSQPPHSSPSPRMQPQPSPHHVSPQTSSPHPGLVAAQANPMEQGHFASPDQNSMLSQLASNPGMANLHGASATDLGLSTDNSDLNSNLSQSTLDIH

[8] = biological target: Flag-RAD51 R2 (residues 82-339, ATPase domain) (UniProt Q06609); experiment: as above
[9] = biological target: Flag-RAD51, full length (UniProt Q06609); experiment: as above
[10] = biological target: Flag-RAD51, full length (UniProt Q06609); experiment: co-IP; anti-Flag immunoprecipitation from HEK293T cells transfected with empty vector or Flag-RAD51, with or without DNase I; blot for PCAF (Fig. EV2D)
[11] = biological target: Flag-PCAF (p300-associated factor), full length (UniProt Q92831); experiment: co-IP; anti-Flag M2 beads, HEK293T cells transfected with empty vector or Flag-PCAF; blot for endogenous RAD51 (Fig. EV2B)

In the case of “Flag-PCAF (p300-associated factor), full length (from UniProt Q92831 1-832) (enzyme)”, the binding [1] is reported as “binds”, the binding [2] is reported as “binds” and the binding [3] is reported as “binds”. For the same substance, the binding [4] was “binds”.
In the case of “His-PCAF, purified from E. coli (from UniProt Q92831 1-832) (enzyme)”, the binding [5] is reported as “binds”.
With “PCAF (endogenous) (from UniProt Q92831 1-832) (enzyme)” the binding [6] was “binds”, the binding [7] was “no binding” and the binding [8] was “binds”. The binding [9] was “binds” and the binding [10] was “binds”.
For “RAD51 (endogenous) (from UniProt Q06609 1-339)”, the binding [11] was “binds”.
With “p300 (endogenous) (from UniProt Q09472 1-2414) (enzyme)” the binding [6] was “no binding”.

— article PMC12373954
